About 220 (0.56%) of roughly 39,000 compounds showed activity. Some of the results follow.
The compounds below were run on Escherichia coli K-12 BW25113 (assay: relative growth (OD600 normalised to plate interquartile mean) (fraction); higher = less growth inhibition, active = 0.2 or less). Settings: 50 µM; LB; incubation time: overnight (16-24 h).
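Further: static incubation at 37 °C against the wild-type strain, values averaged over two biological replicates.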

Row | Structure (SMILES) | relative growth
1 | Cn1cnc(S(=O)(=O)N[C@@H]2C=C[C@H](CC(=O)NCC3CC3)O[C@@H]2CO)c1 | inactive: 1
2 | NCc1ccno1 | inactive: 0.992
3 | CO[C@H](CN(C)C(=O)Nc1ccc(C(F)(F)F)cc1)[C@H](C)CN(Cc1ccccc1Cl)[C@@H](C)CO | inactive: 1.01
4 | C[C@@H]1CCCCO[C@H](CN(C)S(=O)(=O)c2ccc(F)cc2)[C@@H](C)CN([C@@H](C)CO)C(=O)c2cc(NC(=O)Nc3cccc4ccccc34)ccc2O1 | inactive: 1.03
5 | Cc1noc(C)c1NC(=O)Nc1ccc2c(c1)C(=O)N([C@@H](C)CO)C[C@@H](C)[C@H](CN(C)S(C)(=O)=O)O2 | inactive: 0.962
6 | NNC(=O)Cc1nc2ccccc2[nH]1 | inactive: 1.03
7 | COc1ccc(S(=O)(=O)N(C)C[C@@H]2Oc3ccc(NS(C)(=O)=O)cc3CC(=O)N([C@@H](C)CO)C[C@H]2C)cc1 | inactive: 1.03
8 | CNC(=O)C[C@H]1CC[C@@H]2[C@H](COC[C@@H](O)CN2C(=O)Nc2cccc(OC)c2)O1 | inactive: 0.996
9 | CO[C@@H]1CN(C)C(=O)c2cc(NS(=O)(=O)c3cn(C)cn3)ccc2OC[C@H](C)N(Cc2cccc(F)c2)C[C@H]1C | inactive: 0.984
10 | CO[C@@H]1CN(C)C(=O)c2ccc(NC(=O)C3CCOCC3)cc2OC[C@H](C)N(Cc2cccnc2)C[C@H]1C | inactive: 1.03
11 | C[C@@H]1CCCCO[C@H](CN(C)S(C)(=O)=O)[C@@H](C)CN([C@H](C)CO)C(=O)c2cc(N(C)C)ccc2O1 | inactive: 0.947
12 | C[C@@H]1CCCCO[C@H](CN(C)C(=O)CCCN(C)C)[C@H](C)CN([C@@H](C)CO)C(=O)c2cc(N(C)C)ccc2O1 | inactive: 0.998
13 | COc1ccc(NC(=O)Nc2ccc3c(c2)C(=O)N([C@H](C)CO)C[C@H](C)[C@@H](CN(C)C(=O)NC(C)C)OCCCC[C@H](C)O3)cc1 | inactive: 1.01
14 | COc1ccc([C@H]2[C@@H](C(N)=O)C2(C#N)C#N)cc1 | inactive: 0.999
15 | N#C[C@H]1N[C@@H](CO)[C@H]1c1ccccc1 | inactive: 0.991
16 | C[C@H](CO)N1C[C@H](C)[C@H](CN(C)C(=O)NC2CCCCC2)OCCCC[C@H](C)Oc2ccc(NS(=O)(=O)c3ccc(Cl)cc3)cc2C1=O | inactive: 1.02
17 | C[C@H]1CN([C@@H](C)CO)C(=O)c2cc(NC(=O)Nc3cccc4ccccc34)ccc2O[C@H]1CN(C)CC1CCCCC1 | inactive: 1.01
18 | CNC[C@@H]1Oc2c(NS(=O)(=O)c3cn(C)cn3)cccc2C(=O)N([C@H](C)CO)C[C@H]1C | inactive: 1.02
19 | C[C@@H]1CN([C@H](C)CO)C(=O)c2cc(NC(=O)Cn3cnnn3)ccc2O[C@H]1CN(C)C(=O)Nc1cccc2ccccc12 | inactive: 1
20 | CNC(=O)C[C@H]1CC[C@H]2[C@@H](COC[C@H](O)CN2C(=O)c2ccccn2)O1 | inactive: 1.01

Row | Structure (SMILES) | relative growth
21 | C[C@@H]1CN([C@@H](C)CO)C(=O)c2cc(NC(=O)Nc3ccc4c(c3)OCO4)ccc2O[C@@H](C)CCCCO[C@H]1CN(C)CC1CCCCC1 | inactive: 0.994
22 | COC(=O)c1c2oc(c1C(=O)OC)C(=O)N[C@@H](Cc1ccccc1)Cn1cc(nn1)CNC(=O)[C@@H](Cc1ccccc1)NC(=O)N[C@@H](COC(=O)NCCCCCC(=O)NO)CC2 | inactive: 1.05
23 | Cc1ccc(S(=O)(=O)Nc2cccc3c2O[C@H](CN(C)Cc2ccc(C(F)(F)F)cc2)[C@@H](C)CN([C@@H](C)CO)C3=O)cc1 | inactive: 0.988
24 | CC(C)(O)C#Cc1ccc([C@@H]2[C@H]3CN(S(C)(=O)=O)CCCCN3[C@H]2CO)cc1 | inactive: 1.04
25 | CCCC#Cc1ccc2c(c1)O[C@@H](CN(C)C(=O)c1cnccn1)[C@H](C)CN([C@H](C)CO)S2(=O)=O | inactive: 0.983
26 | COc1ccc(C#Cc2ccc3c(c2)O[C@H](CN(C)S(=O)(=O)c2ccccc2F)[C@H](C)CN([C@H](C)CO)S3(=O)=O)cc1 | inactive: 1.03
27 | Cn1cnc(S(=O)(=O)N[C@@H]2CC[C@H](CC(=O)Nc3ccccc3)O[C@H]2CO)c1 | inactive: 0.993
28 | O=S(=O)(O)O/N=C(\Cc1ccc(O)cc1)S[C@H]1O[C@H](CO)[C@@H](O)[C@H](O)[C@H]1O | inactive: 0.99
29 | CO[C@H](CN(C)C(=O)c1ccccc1F)[C@@H](C)CN([C@@H](C)CO)S(=O)(=O)c1ccc(Cl)cc1 | inactive: 0.989
30 | COc1cc(/C=C/C(=O)N2CCC=CC2=O)cc(OC)c1OCCOCCOCCOCCC(=O)OC(C)(C)C | inactive: 0.988
31 | Cc1noc(C)c1S(=O)(=O)N(C)C[C@@H]1OCCCC[C@@H](C)Oc2ccc(NC(=O)Nc3ccccc3)cc2C(=O)N([C@@H](C)CO)C[C@@H]1C | inactive: 1.01
32 | NC(=O)c1cccc(C(N)=O)c1 | inactive: 0.999
33 | C[C@@H]1CN([C@H](C)CO)C(=O)c2cc(C#CCN(C)C)cnc2O[C@H]1CN(C)C(=O)Nc1cccc(F)c1 | inactive: 1.01
34 | Cc1noc(C)c1NC(=O)N(C)C[C@@H]1Oc2ccc(NC(=O)NC(C)C)cc2CC(=O)N([C@H](C)CO)C[C@H]1C | inactive: 0.97
35 | C[C@H](CO)N1C[C@H](C)[C@@H](CN(C)S(=O)(=O)c2ccc(Oc3ccccc3)nc2)OCc2cn(nn2)CCCC1=O | inactive: 1.01
36 | COc1ccccc1C#Cc1cnc2c(c1)C(=O)N([C@@H](C)CO)C[C@@H](C)[C@H](CN(C)C(=O)c1ccc3c(c1)OCO3)O2 | inactive: 1.02
37 | Cc1noc(C)c1S(=O)(=O)Nc1ccc2c(c1)C(=O)N([C@@H](C)CO)C[C@H](C)[C@H](CN(C)Cc1ccc(C(F)(F)F)cc1)OCCCC[C@@H](C)O2 | inactive: 1.04
38 | CC(C)NC(=O)Nc1ccc2c(c1)C(=O)N([C@H](C)CO)C[C@H](C)[C@@H](CN(C)S(=O)(=O)c1cn(C)cn1)OCCCC[C@@H](C)O2 | inactive: 0.981
39 | C[C@H]1CN([C@@H](C)CO)C(=O)c2cc(NC(=O)Nc3ccc4c(c3)OCO4)ccc2O[C@H]1CN(C)Cc1ccc(Oc2ccccc2)cc1 | inactive: 1
40 | CC(C)NC(=O)N[C@@H]1C=C[C@@H](CC(=O)O)O[C@H]1CO | inactive: 0.981

Row | Structure (SMILES) | relative growth
41 | Cc1ccc(S(=O)(=O)N(C)C[C@@H]2Oc3ccc(NS(=O)(=O)c4ccc(F)cc4)cc3CC(=O)N([C@@H](C)CO)C[C@@H]2C)cc1 | inactive: 0.996
42 | COc1ccc(CN(C)C[C@H]2OCCCC[C@@H](C)Oc3ccc(NS(=O)(=O)c4ccccc4)cc3C(=O)N([C@@H](C)CO)C[C@@H]2C)cc1 | inactive: 0.989
43 | C[C@@H]1CCCCO[C@H](CN(C)C(=O)Nc2ccc(C(F)(F)F)cc2)[C@@H](C)CN([C@@H](C)CO)C(=O)c2cc(NC(=O)c3ccccc3)ccc2O1 | inactive: 1.02
44 | O=C(C[C@H]1CC[C@H]2[C@@H](COC[C@H](O)CN2C(=O)Nc2cccc(Cl)c2)O1)NCCCN1CCOCC1 | inactive: 1.01
45 | Cc1noc(C)c1NC(=O)Nc1ccc2c(c1)CC(=O)N([C@H](C)CO)C[C@H](C)[C@@H](CN(C)S(=O)(=O)c1cn(C)cn1)O2 | inactive: 1
46 | O=C(O)c1ccc(Nc2cn[nH]c(=O)n2)cc1O | inactive: 0.919
47 | COCC(=O)Nc1ccc2c(c1)C(=O)N(C)C[C@@H](OC)[C@H](C)CN(C(=O)c1ccccc1F)[C@H](C)CO2 | inactive: 0.99
48 | Nc1nc(=O)c2nc(C(=O)O)cnc2[nH]1 | inactive: 0.995
49 | CO[C@@H](C(=O)N(C)C[C@@H]1OCc2ccccc2-c2c(n(C)c3ccccc23)C(=O)N([C@H](C)CO)C[C@@H]1C)c1ccccc1 | inactive: 1
50 | CN1C(=O)c2cc(NC(=O)C3CCOCC3)ccc2OC[C@H]2O[C@H](CC(=O)NCc3ccc4c(c3)OCO4)CC[C@H]21 | inactive: 0.992
51 | CC(C)NC(=O)Nc1cccc2c1O[C@H](CN(C)S(=O)(=O)c1ccccc1)[C@H](C)CN([C@H](C)CO)C2=O | inactive: 0.988
52 | O=C(C[C@H]1CC[C@H]2[C@@H](COC[C@@H](O)CN2C(=O)c2ccc3c(c2)OCO3)O1)NCCN1CCCCC1 | inactive: 0.981
53 | C[C@@H]1CN([C@H](C)CO)C(=O)c2cc(C#Cc3ccccc3F)cnc2O[C@@H]1CN(C)S(=O)(=O)c1ccccc1 | inactive: 1.05
54 | C[C@@H]1CCCCO[C@@H](CN(C)CC2CCCCC2)[C@@H](C)CN([C@@H](C)CO)C(=O)c2cc(NS(=O)(=O)c3ccccc3)ccc2O1 | inactive: 0.985
55 | COc1ccc(CN(C)C[C@@H]2Oc3c(NC(=O)Nc4ccc(C(F)(F)F)cc4)cccc3C(=O)N([C@@H](C)CO)C[C@@H]2C)cc1 | inactive: 0.971
56 | COCC(=O)Nc1ccc2c(c1)[C@@H]1C[C@@H](CC(=O)N3CCOCC3)O[C@H](CO)[C@@H]1O2 | inactive: 1
57 | O=C(O)CCC(=O)Nc1ccccn1 | inactive: 0.906
58 | C=CCOC(=O)[C@H]1[C@@H]2C(=O)O[C@@H](c3ccccc3)[C@@H](c3ccccc3)N2[C@@H](c2ccc(OCCOC(=O)[C@H]3C[C@H]4C(=O)N[C@@H](CC(C)C)C(=O)N4[C@H]3c3cccc(OCCO)c3)cc2)[C@]12C(=O)Nc1ccccc12 | inactive: 1.05
59 | COc1ccc(S(=O)(=O)Nc2ccc3c(c2)C(=O)N([C@@H](C)CO)C[C@@H](C)[C@@H](CN(C)C(=O)Nc2cccc4ccccc24)OCCCC[C@H](C)O3)cc1 | inactive: 1.03
60 | C[C@@H]1CCCCO[C@H](CN(C)C(=O)Nc2ccc(F)cc2)[C@@H](C)CN([C@@H](C)CO)C(=O)c2cc(NS(=O)(=O)c3ccc(F)cc3)ccc2O1 | inactive: 1.05
